# The whole screen tested about 240,000 compounds, of which about 950 (0.4%) were called active. Inconclusive results, whose numbers are uncertain, are shown with a selection of clear calls.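 The calls were made as follows: active = lipid droplet intensity inhibited by at least 50%, with more than 500 cells counted; inconclusive = wells with under 300 cells, treated as cytotoxic; inactive = the rest.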
# Assay: inhibitors of hepatocyte lipid droplet formation, primary screen, imaging, high-throughput imaging, BODIPY stain (AID 1656)
# Settings: AML12 mouse hepatocytes, oleate lipid droplets, at 6.5 µM, stronger effect = higher value
# Procedure, shortened: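 Assay system: AML12 hepatocytes (mouse); Probe or stimulus: oleic acid at 100 µM to induce lipid droplet formation; Dosing: compound at 6.5 µM only; Schedule: compound with oleate, overnight; Detection: fluorescence imaging, 20x objective, two fields per well; Measure: % inhibition of lipid droplet signal.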
row,Structure (SMILES),inhibition
1,CC(C)(C)NC(=O)CSC(=Nc1ccccc1F)NC#N,inconclusive: -9.7%
2,CCOC(=O)c1ccc(NC(=O)CSc2nc3c(c(=O)n2CC)SC(C)C3)cc1 (stereo unspecified),active: 51.9%
3,O=C(c1ccccc1)c1cc([N+](=O)[O-])ccc1N1CCOCC1,inconclusive: -126%
4,Cc1ccc(C(NC(=O)C2CCCCC2)c2c(O)ccc3ccccc23)cc1 (stereo unspecified),active: 57.3%
5,CCOc1ccc(CCNC(=O)COC(=O)/C=C/c2ccc(C)o2)cc1OCC,active: 58.8%
6,O=C(NCCOc1ccccc1)c1cc(S(=O)(=O)N2CCOCC2)ccc1F,inconclusive: 117%
7,CCOC(=O)c1ccc(NC(=O)N2CCN(c3ccccn3)CC2)cc1,inactive: -7.3%
8,CCn1c(SCC(=O)c2ccccc2)nnc1-c1cnccn1,inactive: 0.3%
9,CN(C)S(=O)(=O)c1cccc(NC(=O)CC23CC4CC(CC(C4)C2)C3)c1,active: 83.9%
10,C/C(=N\NC(=O)c1c(Cl)c(C)nn1C)c1ccc(NC(=O)C2CCC2)cc1,inconclusive: -112%
11,Cc1ccccc1C(=O)NC1CCN(Cc2nnnn2C2CCCC2)CC1,active: 63.3%
12,Oc1[nH]c2ccccc2c1N=Nc1nc(Nc2ccccc2)nc(N2CCOCC2)n1,active: 60.5%
13,CCOc1cc(/C=C/C(=O)c2ccc(OC)c(CN3CCOCC3)c2)cc(Br)c1O,inactive: -1.6%
14,Fc1ccc(Nc2nc(-c3ccncc3)nc3ccccc23)cc1F,inactive: 28.6%
15,Cc1c(/C=N\NC(=O)C2COc3ccccc3O2)c2ccccc2n1C (stereo unspecified),inconclusive: -79.1%
16,COc1ccc(OC)c(NC(=O)CSc2ccc(-c3cccnc3)nn2)c1,inactive: 13.1%
17,C#CCn1c(=NC(=O)c2sc3ccccc3c2Cl)sc2cc(S(N)(=O)=O)ccc21,inconclusive: -22.8%
18,C=CCOC(=O)c1[nH]c2c(c1C)C(=O)CC(c1ccco1)C2 (stereo unspecified),inconclusive: -114%
19,O=c1cc(-c2ccccc2)[nH]c2cc(Cl)ccc12,inconclusive: -279%
20,Cc1ccc(/C=N/NC(=O)c2cc(-c3cccnc3)nc3ccccc23)cc1,inconclusive: -220%
21,Cc1ccc(-c2cc(C(=O)N/N=C/c3c(C)nn(-c4ccccc4)c3C)[nH]n2)cc1,inconclusive: -96.6%
22,CC(C)CCOc1ccc(C(=O)NCC(c2ccco2)N(C)C)cc1 (stereo unspecified),active: 54.3%
23,Cc1nn(-c2ccccc2)c(C)c1/C=N/NC(=O)c1cc(-c2ccccc2)n[nH]1,inconclusive: -210%

row,Structure (SMILES),inhibition
1,Cc1ccc(Cn2c(=N)n(CC(=O)c3ccc([N+](=O)[O-])cc3)c3ccccc32)cc1,inconclusive: -63%
2,CC1=C(C(=O)Nc2ccccc2C(=O)NC2CCC(C)CC2)SCCO1 (stereo unspecified),inactive: -8.4%
3,Cc1cc2nn(-c3ccc(Cl)cc3)nc2cc1N,active: 62.5%
4,CC(C)Oc1ccc(C(=O)OC(C)C(=O)Nc2nc(-c3cccc([N+](=O)[O-])c3)cs2)cc1 (stereo unspecified),active: 91.2%
5,Cc1ccc(S(=O)(=O)NCCC(=O)Nc2ccc(C)c(Cl)c2)cc1C,inconclusive: 120%
6,Cc1ccc(-c2cc(C(F)F)n3ncc(C(=O)N4CCc5ccccc54)c3n2)cc1,inconclusive: -175%
7,Cc1ccc(Nc2nc(/N=C/NO)n[nH]2)cc1C,inactive: -6.7%
8,CCOc1ccccc1CNS(=O)(=O)c1ccc(-c2cnc(C3CC3)o2)cc1,inconclusive: -9%
9,CNc1ccc(Br)cc(C(=O)/C=C/c2cccc(Cl)c2Cl)c1=O,inactive: -3.3%
10,N#CC1=C(N)NC(SCC(=O)Nc2ccccc2)=C(C#N)C12CCCCC2,inactive: -10.4%
11,Cn1cc(SCC(=O)NC2CCCCC2)c2ccccc21,inconclusive: 120%
12,CC(C)N1CCN(Cc2coc3ccccc3c2=O)CC1CCO (stereo unspecified),inactive: -21.6%
13,O=C(COc1ccc(C2SCCS2)cc1)Nc1ccc(Cl)cc1,inconclusive: -140%
14,Cc1ccc(C(=O)Nc2cc3c(cc2N2CCCCC2)n(C)c(=O)n3C)cc1,inconclusive: 121%
15,COC(=O)c1cc(C(=O)N2CCN(c3ccccc3OC)CC2)cc([N+](=O)[O-])c1,inconclusive: -213%
16,O=C(N/N=C/C(Br)=C\c1ccccc1)c1n[nH]c2c1CCC2,inconclusive: -63.6%
17,O=C(N/N=C/c1ccccc1OC(F)F)c1cc(-c2ccncc2)nc2ccccc12,inconclusive: -272%
18,Cc1ccc(S(=O)(=O)N(C)c2ccc(OCC(=O)Nc3nc4ccccc4s3)cc2)cc1,inconclusive: -5.8%
19,O=C1c2cccc3cc([N+](=O)[O-])cc(c23)C(=O)N1CCN1CCCC1,inconclusive: -222%
20,CC(NC(=O)CN(C)S(=O)(=O)c1ccc(Br)s1)c1ccccc1 (stereo unspecified),inactive: -1.2%
21,Cc1cc(C)cc(NS(=O)(=O)c2ccc(-c3cnc(C4CC4)o3)cc2)c1,inconclusive: -62.7%
22,Cc1nc2ncccn2c1-c1csc(Nc2ccc(N(C)C)cc2)n1,inconclusive: -224%
23,CCCCC[C@H]1CN(CCCC)C(=O)[C@@H]1CC(=O)NCc1ccccc1,inconclusive: 118%

row,Structure (SMILES),inhibition
1,COC(=O)Nc1nc(-c2ccccc2)c(C(=O)c2ccccc2)s1,inconclusive: -167%
2,CCn1c2ccccc2c2cc(NC(=O)c3cc(OC)cc(OC)c3)ccc21,inconclusive: -204%
3,O=C(COC(=O)CCc1ccccc1)Nc1ccc(F)cc1Cl,inconclusive: -119%
4,Cc1cccc(OCc2ccc(C(=O)N3CCOCC3)o2)c1,inconclusive: -88.1%
5,CCCC(=O)OCC(=O)Nc1ccccc1Sc1ccccc1,inconclusive: -45.3%
6,COCCCN=C1NN=C(c2cc(C)n(Cc3ccccc3Cl)c2C)CS1,inconclusive: -134%
7,C/C=C/COC(=O)c1[nH]c2c(c1C)C(=O)CC(c1ccco1)C2 (stereo unspecified),inconclusive: -133%
8,CC(Oc1ccc2c(c1)oc(=O)c1ccccc12)C(=O)NCCN1CCOCC1 (stereo unspecified),inactive: -1.6%
9,CN(Cc1ccco1)S(=O)(=O)c1nnc(NC(=O)c2ccccc2Cl)s1,inactive: -10.6%
10,CN(NC(=O)c1ccccc1F)c1nc(C(F)(F)F)nc2ccccc12,inconclusive: -226%
11,O=C(NCc1cccs1)c1cccnc1Cl,inconclusive: -5%
12,COc1ccc(Cl)cc1NC(=O)CN1C(=O)NC2(CCCC2)C1=O,active: 87.8%
13,CC(C)CC(C(=O)O)N1C(=O)C2C3CC(C2C1=O)C1C(c2ccccc2)c2sc(=O)[nH]c2SC31 (stereo unspecified),inconclusive: -24.6%
14,CC(C)C(NS(=O)(=O)c1cccs1)C(=O)NCc1ccccc1 (stereo unspecified),inconclusive: 160%
15,CSc1sc(C(=O)OC(C)C)c2c1C(=O)CC(C)(C)C2,inconclusive: 124%
16,CCOC(=O)c1cnn(-c2c(Cc3ccccc3)c(C)nc3c(-c4ccccc4)c(C)nn23)c1N,inactive: -1.2%
17,COc1ccc(C2NCCc3c2[nH]c2ccccc32)cc1COc1ccc(F)cc1 (stereo unspecified),inconclusive: -84.2%
18,COc1ccc(S(=O)(=O)N2CCN(C(=O)c3ccc([N+](=O)[O-])o3)CC2)cc1,inconclusive: -68.1%
19,CC(=O)/C(=C/N(C)C)C(=O)Nc1ccc(Cl)cc1Cl,inactive: -1.1%
20,COc1cc(OC)cc(N(C(=O)c2ccco2)C(C(=O)NC2CCCC2)c2ccc(N3CCOCC3)cc2)c1 (stereo unspecified),inconclusive: 125%
21,COc1ccc2c(c1)C(C)=CC(C)(C)N2S(=O)(=O)c1ccc(C)cc1,inconclusive: -256%
22,COc1ccc(/C=N/NC(=O)CCn2cnc(-c3ccccc3)c2-c2ccccc2)cc1,inconclusive: -171%
23,O=C(COc1ccc(-c2ccccc2)cc1)NNC(=O)Nc1ccc(F)cc1F,inactive: -28.8%

row,Structure (SMILES),inhibition
1,O=C(N/N=C/c1ccc(Cl)cc1)c1sccc1OCc1ccc(F)cc1,inconclusive: -156%
2,Cn1c2c(c(=O)n(C)c1=O)C(c1ccc(Cl)cc1)C(C#N)=C(N)O2 (stereo unspecified),inconclusive: -64.5%
3,Cc1ccc(C=Nc2ccccc2C(N)=O)s1,inconclusive: -142%
4,COC(=O)C1(C)NC(c2ccccc2F)C2C(=O)N(c3ccccc3)C(=O)C21 (stereo unspecified),inconclusive: 113%
5,CCn1c(SCC(=O)NC2CCCC2)nnc1-c1c[nH]c2ccccc12,inactive: -25.7%
6,CCN1C(=O)/C(=C/C=C2/Sc3ccc4ccccc4c3N2CCO)SC1=S,active: 76.8%
7,C/C(=N\Nc1nc(-c2ccccc2)cs1)c1cccs1,active: 52.5%
8,COc1ccc(OC)c(Nc2cc(-c3ccccc3)nc(N)n2)c1,inconclusive: -158%
9,NC(=S)Nc1ccc(Cl)c(Cl)c1,inactive: 0.8%
10,Cc1ccc(-c2cc(C(=O)N/N=C/c3c(C)nn(-c4ccccc4)c3C)n[nH]2)s1,inconclusive: -111%
11,CCC(c1nnnn1C1CCCCC1)N(Cc1ccco1)Cc1cc2ccc(OC)cc2[nH]c1=O (stereo unspecified),inconclusive: 113%
12,c1cc2c(cc1C1CCCCC1)c1c3n2CCCNC3CCC1 (stereo unspecified),inactive: -1.5%
13,Cc1ccc(C2CC(c3cccs3)=NN2S(=O)(=O)c2ccc(C)cc2)cc1 (stereo unspecified),inactive: -14.3%
14,Cc1cc2c(cc1S(=O)(=O)Nc1cccc(C)c1C)n(C)c(=O)c(=O)n2C,active: 54.1%
15,Cc1ccc(NC(=O)COC(=O)C(NS(=O)(=O)c2ccc(Cl)cc2)C(C)O)cc1C (stereo unspecified),inconclusive: 0.4%
16,CN(C)c1ccc(C(=O)Nc2ccc(S(=O)(=O)Nc3nccs3)cc2)cc1,inconclusive: 120%
17,CC(=O)Nc1cccc(OCC(=O)NC(C)c2ccc3ccccc3c2)c1 (stereo unspecified),active: 68.5%
18,CC(C)C[C@H](NC(=O)C1CC(=O)N(c2ccc3c(c2)OCO3)C1)C(=O)NCc1ccco1 (stereo partly specified),inactive: 0.7%
19,O=C(c1ccc(Cl)cc1)c1cc([N+](=O)[O-])ccc1N1CCOCC1,inconclusive: -121%
20,Cc1ccc(-n2c(=O)cc(N3CCCCCC3)[nH]c2=O)cc1,inconclusive: 157%
21,COc1ccccc1-c1nnc2sc(-c3ccc(N(C)C)cc3)nn12,inconclusive: -244%
22,CS(=O)(=O)c1ccc(C(=O)OCC(=O)NC23CC4CC(CC(C4)C2)C3)cc1[N+](=O)[O-],inactive: 21.6%

# Reference: PubChem BioAssay AID1656 (Sanford-Burnham Center for Chemical Genomics, 2009)
